# Among all 39,000 compounds or so, about 220 (0.56%) showed activity. Some of the results follow.
# Tested on: Escherichia coli K-12 BW25113
# Experiment: relative growth (OD600 normalised to plate interquartile mean) (fraction); higher = less growth inhibition, active = 0.2 or less
# Settings: 50 µM; LB; incubation time: overnight (16-24 h)
# 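Also: static incubation at 37 °C against the wild-type strain, values averaged over two biological replicates.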
row,SMILES,relative growth
1,COc1ccc(S(=O)(=O)N[C@H]2C=C[C@H](CC(=O)N3CCN(c4ccccc4)CC3)O[C@@H]2CO)cc1,inactive: 0.993
2,COc1ccccc1-c1ccc2c(c1)O[C@H](CN(C)CC1CCOCC1)[C@@H](C)CN([C@@H](C)CO)S2(=O)=O,inactive: 1
3,CN1CCN(C(=O)[C@@H]2[C@@H](CO)[C@@H]3Cn4c(cccc4=O)[C@H]2N3Cc2ccncc2)CC1,inactive: 0.993
4,COc1ccc(S(=O)(=O)N(C)C[C@H]2Oc3ccc(NS(=O)(=O)c4cn(C)cn4)cc3C(=O)N([C@H](C)CO)C[C@H]2C)cc1,inactive: 1.02
5,C[C@H](CO)N1C[C@H](C)[C@@H](CN(C)S(=O)(=O)c2cccs2)Oc2ccc(NS(=O)(=O)c3ccccc3)cc2C1=O,inactive: 1.01
6,C[C@H](CO)N1C[C@H](C)[C@@H](CN(C)CC2CC2)Oc2c(NS(=O)(=O)c3cccs3)cccc2C1=O,inactive: 1.01
7,Cn1c(N)c(S(=O)(=O)N2CCCC[C@@H]2c2cccnc2)c(=O)n(C)c1=O,inactive: 1.01
8,CN1CCC(CO)CC1,inactive: 0.981
9,C[C@@H]1CN([C@@H](C)CO)C(=O)CCCn2cc(nn2)CO[C@@H]1CN(C)S(=O)(=O)c1ccc(C#N)cc1,inactive: 0.986
10,CC(C)(C)OC(=O)C[C@@H]1CC=CC[C@H](CC(=O)N[C@@H](CO)Cc2ccccc2)C(=O)N2CCC[C@H]2COC1=O,inactive: 0.989
11,CC(C)NC(=O)Nc1ccc2c(c1)C(=O)N([C@H](C)CO)C[C@@H](C)[C@H](CN(C)Cc1ccccc1)OCCCC[C@@H](C)O2,inactive: 1.02
12,C[C@@H]1CCCCO[C@H](CN(C)Cc2ccc(C(=O)O)cc2)[C@H](C)CN([C@@H](C)CO)C(=O)c2cc(NC(=O)CCC(F)(F)F)ccc2O1,inactive: 0.98
13,C[C@@H]1CCCCO[C@H](CN(C)S(=O)(=O)c2cn(C)cn2)[C@@H](C)CN([C@H](C)CO)C(=O)c2cc(NS(=O)(=O)c3ccc(F)cc3)ccc2O1,inactive: 1.01
14,C[C@@H]1CCCCO[C@@H](CN(C)Cc2ccncc2)[C@@H](C)CN([C@@H](C)CO)C(=O)c2cc(NC(=O)Nc3cccc4ccccc34)ccc2O1,inactive: 0.994
15,COc1cccc(S(=O)(=O)N(C)C[C@@H]2Oc3ncc(C#CCC(C)C)cc3C(=O)N([C@H](C)CO)C[C@@H]2C)c1,inactive: 1.03
16,COC(=O)c1cc(=O)nc2n1[C@H]1O[C@H](CO)[C@H](O)[C@H]1O2,inactive: 1.01
17,C[C@H](CO)N1C[C@H](C)[C@H](CN(C)S(C)(=O)=O)Oc2c(NS(=O)(=O)c3cccs3)cccc2C1=O,inactive: 0.965
18,Cc1ccccc1NC(=O)CC(C)C,inactive: 1
19,C[C@@H]1CN([C@H](C)CO)C(=O)c2cccc(NS(=O)(=O)c3ccc(F)cc3)c2O[C@H]1CN(C)CC1CC1,inactive: 0.91
20,C[C@H]1CN([C@@H](C)CO)C(=O)c2cccc(NS(=O)(=O)c3ccc(Cl)cc3)c2O[C@H]1CN(C)Cc1ccc(C(=O)Nc2ccccc2N)cc1,inactive: 1.03

row,SMILES,relative growth
1,C[C@@H]1CN([C@@H](C)CO)C(=O)c2cccc(NS(=O)(=O)c3ccccc3)c2O[C@@H]1CN(C)Cc1ccc(-c2ccccc2)cc1,inactive: 1.01
2,C[C@H](CO)N1C[C@H](C)[C@H](CN(C)C(=O)Cc2cccnc2)Oc2ncc(C#CCc3ccccc3)cc2C1=O,inactive: 0.984
3,NCc1c[nH]c(=S)n1[C@H]1CCc2c(F)cc(F)cc2C1,inactive: 0.998
4,Cc1ccc(NC(=O)Nc2cc(C(F)(F)F)ccc2F)cc1Nc1ccc2c(c1)NC(=O)/C2=C\c1ccc[nH]1,inactive: 1.02
5,C[C@@H]1CN([C@H](C)CO)C(=O)Cc2cc(NS(=O)(=O)c3ccc(Cl)cc3)ccc2O[C@H]1CN(C)Cc1ccc(Oc2ccccc2)cc1,inactive: 0.954
6,O=C(Cc1ccccn1)NCC[C@@H]1CC[C@@H](NC(=O)CN2CCOCC2)[C@@H](CO)O1,inactive: 0.993
7,Nc1ccn([C@@H]2O[C@H](CO)[C@@H](O)[C@@H]2O)c(=O)n1,inactive: 1.01
8,C[C@H]1CCCCO[C@@H](CN(C)C(=O)Nc2ccc(F)cc2)[C@@H](C)CN([C@@H](C)CO)C(=O)c2cc(NC(=O)c3ccccc3)ccc2O1,inactive: 0.996
9,COc1ccc([Si](C)(C)[C@H]2[C@H](CCO)O[C@@]3(C(=O)N(Cc4ccc(N5C(=O)COc6ccccc65)cc4)c4ccccc43)[C@@H]2C)cc1,inactive: 1.02
10,Cn1c(=O)c2[nH]cnc2n(C)c1=O,inactive: 1.1
11,C[C@H](CO)N1C[C@H](C)[C@H](CN(C)Cc2ccc(C(=O)O)cc2)Oc2ccc(NC(=O)Cn3cnnn3)cc2CC1=O,inactive: 1.01
12,C[C@@H]1CN([C@@H](C)CO)C(=O)c2cc(NC(=O)Nc3cccc4ccccc34)ccc2O[C@@H](C)CCCCO[C@H]1CN(C)Cc1ccncc1,inactive: 0.985
13,Cc1ccc(S(=O)(=O)Nc2ccc3c(c2)C(=O)N([C@H](C)CO)C[C@@H](C)[C@H](CN(C)C(=O)Nc2ccc(C(F)(F)F)cc2)OCCCC[C@H](C)O3)cc1,inactive: 0.998
14,COc1ccc(NC(=O)Nc2ccc3c(c2)C(=O)N([C@H](C)CO)C[C@H](C)[C@H](CN(C)C(=O)C2CCCCC2)OCCCC[C@@H](C)O3)cc1,inactive: 0.986
15,O=C(C[C@@H]1CC=CCC[C@H](Cc2ccc(F)cc2)C(=O)OC[C@H](Cc2c[nH]c3ccccc23)NC1=O)N[C@@H](CO)Cc1ccccc1,inactive: 0.986
16,C[C@H]1ON(c2ccc(C(=O)OC(C)(C)C)cc2)[C@@H](c2ccc(O)cc2)[C@@H]1C(=O)N1C(=O)OC[C@@H]1c1ccccc1,inactive: 1.01
17,CC1=C(/C=C/C(C)=C/C=C/C(C)=C/C=C/C=C(C)/C=C/C=C(C)/C=C/C2=C(C)C(=O)[C@@H](O)CC2(C)C)C(C)(C)C[C@H](O)C1=O,inactive: 0.988
18,C=CCOC(=O)[C@H]1[C@@H]2C(=O)O[C@@H](c3ccccc3)[C@@H](c3ccccc3)N2[C@@H](c2ccc(OCCOC(=O)[C@@H]3C[C@@H]4C(=O)N[C@@H](Cc5ccccc5)C(=O)N4[C@@H]3c3ccc(O)cc3)cc2)[C@]12C(=O)Nc1ccccc12,inactive: 1.06
19,COc1ccc(NC(=O)N(C)C[C@H]2OCCCC[C@H](C)Oc3ccc(NS(=O)(=O)c4ccc(Cl)cc4)cc3C(=O)N([C@@H](C)CO)C[C@H]2C)cc1,inactive: 1.03
20,COCC#Cc1ccc2c(c1)O[C@H](CN(C)Cc1ccccc1F)[C@@H](C)CN([C@@H](C)CO)S2(=O)=O,inactive: 1.06

row,SMILES,relative growth
1,C[C@@H]1CN([C@@H](C)CO)C(=O)c2cc(NC(=O)Nc3ccccc3)ccc2O[C@@H](C)CCCCO[C@H]1CN(C)C(=O)Nc1ccc(C(F)(F)F)cc1,inactive: 1
2,C[C@@H]1CCCCO[C@H](CN(C)C(=O)Nc2ccc(C(F)(F)F)cc2)[C@@H](C)CN([C@H](C)CO)C(=O)c2cc(NC(=O)Nc3ccc(C(F)(F)F)cc3)ccc2O1,inactive: 1
3,C[C@@H]1CN([C@@H](C)CO)C(=O)Cc2cc(NS(=O)(=O)c3ccccc3)ccc2O[C@@H]1CN(C)Cc1ccc2c(c1)OCO2,inactive: 0.996
4,NCCc1[nH]cnc1-c1cccs1,inactive: 1
5,CC(C)NC(=O)N(C)C[C@@H]1OCCCC[C@@H](C)Oc2ccc(NC(=O)Nc3ccc(C(F)(F)F)cc3)cc2C(=O)N([C@H](C)CO)C[C@@H]1C,inactive: 1.07
6,C[C@H]1CN([C@@H](C)CO)C(=O)c2cccc(NC(=O)c3ccc(-c4nccs4)cc3)c2O[C@@H]1CN(C)C(=O)Nc1ccccc1,inactive: 0.984
7,C[C@@H]1CCCCO[C@@H](CN(C)C(=O)CCC(F)(F)F)[C@H](C)CN([C@@H](C)CO)C(=O)c2cc(NS(=O)(=O)c3cccs3)ccc2O1,inactive: 0.861
8,C[C@H]1CN([C@@H](C)CO)C(=O)c2cccc(NC(=O)Nc3ccc(C(F)(F)F)cc3)c2O[C@H]1CN(C)Cc1ccc(C(=O)O)cc1,inactive: 0.963
9,COCCNC(=O)C[C@@H]1C[C@H]2c3cc(NC(=O)COC)ccc3O[C@H]2[C@@H](CO)O1,inactive: 0.998
10,C[C@H](CO)N1C[C@H](C)[C@H](CN(C)S(C)(=O)=O)Oc2ccc(NC(=O)C3CCCCC3)cc2CC1=O,inactive: 1
11,C[C@@H]1CCCCO[C@H](CN(C)C(=O)Nc2ccc(F)cc2)[C@@H](C)CN([C@@H](C)CO)C(=O)c2cc(NC(=O)c3ccncc3)ccc2O1,inactive: 0.983
12,O=C(NCc1csnn1)c1csnn1,inactive: 0.989
13,C[C@H]1CCCCO[C@@H](CN(C)C(=O)c2ccncc2)[C@@H](C)CN([C@@H](C)CO)C(=O)c2cc(NS(=O)(=O)c3cn(C)cn3)ccc2O1,inactive: 1
14,Nc1nc(Cl)nc2c1ncn2[C@@H]1O[C@H](CO)[C@@H](O)[C@H]1O,inactive: 0.986
15,NNC(=O)CCCCCCC(=O)O,inactive: 0.992
16,Cc1noc(C)c1S(=O)(=O)Nc1ccc2c(c1)C(=O)N([C@@H](C)CO)C[C@H](C)[C@H](CN(C)Cc1ccc(Oc3ccccc3)cc1)O2,inactive: 1.03
17,C[C@H]1CN([C@@H](C)CO)C(=O)c2c(c3ccccc3n2C)-c2ccccc2CO[C@H]1CN(C)CC1CCCCC1,inactive: 1.01
18,C[C@@H]1CN([C@@H](C)CO)C(=O)c2cccc(NC(=O)Nc3ccccc3)c2O[C@@H]1CN(C)C(=O)Nc1ccc(C(F)(F)F)cc1,inactive: 0.997
19,C[C@H](CO)N1C[C@H](C)[C@@H](CN(C)C(=O)Nc2ccc3c(c2)OCO3)OCc2ccccc2-c2c(n(C)c3ccccc23)C1=O,inactive: 0.972
